# According to article PMC4336329 (PLoS ONE, 2015):
# In all, about 310,000 compounds went through this assay and about 2,200 (0.71%) showed an effect of 50% or more. The effect is printed as a negative number. The list shows a part of the results.
# Target: human ether-à-go-go-related gene (hERG) potassium channel (human, UniProt Q12809)
# Experiment: primary screen, population patch clamp on CHO cells stably expressing hERG
# human ether-à-go-go-related gene (hERG) potassium channel, sequence (Q12809 whole entry, looked up): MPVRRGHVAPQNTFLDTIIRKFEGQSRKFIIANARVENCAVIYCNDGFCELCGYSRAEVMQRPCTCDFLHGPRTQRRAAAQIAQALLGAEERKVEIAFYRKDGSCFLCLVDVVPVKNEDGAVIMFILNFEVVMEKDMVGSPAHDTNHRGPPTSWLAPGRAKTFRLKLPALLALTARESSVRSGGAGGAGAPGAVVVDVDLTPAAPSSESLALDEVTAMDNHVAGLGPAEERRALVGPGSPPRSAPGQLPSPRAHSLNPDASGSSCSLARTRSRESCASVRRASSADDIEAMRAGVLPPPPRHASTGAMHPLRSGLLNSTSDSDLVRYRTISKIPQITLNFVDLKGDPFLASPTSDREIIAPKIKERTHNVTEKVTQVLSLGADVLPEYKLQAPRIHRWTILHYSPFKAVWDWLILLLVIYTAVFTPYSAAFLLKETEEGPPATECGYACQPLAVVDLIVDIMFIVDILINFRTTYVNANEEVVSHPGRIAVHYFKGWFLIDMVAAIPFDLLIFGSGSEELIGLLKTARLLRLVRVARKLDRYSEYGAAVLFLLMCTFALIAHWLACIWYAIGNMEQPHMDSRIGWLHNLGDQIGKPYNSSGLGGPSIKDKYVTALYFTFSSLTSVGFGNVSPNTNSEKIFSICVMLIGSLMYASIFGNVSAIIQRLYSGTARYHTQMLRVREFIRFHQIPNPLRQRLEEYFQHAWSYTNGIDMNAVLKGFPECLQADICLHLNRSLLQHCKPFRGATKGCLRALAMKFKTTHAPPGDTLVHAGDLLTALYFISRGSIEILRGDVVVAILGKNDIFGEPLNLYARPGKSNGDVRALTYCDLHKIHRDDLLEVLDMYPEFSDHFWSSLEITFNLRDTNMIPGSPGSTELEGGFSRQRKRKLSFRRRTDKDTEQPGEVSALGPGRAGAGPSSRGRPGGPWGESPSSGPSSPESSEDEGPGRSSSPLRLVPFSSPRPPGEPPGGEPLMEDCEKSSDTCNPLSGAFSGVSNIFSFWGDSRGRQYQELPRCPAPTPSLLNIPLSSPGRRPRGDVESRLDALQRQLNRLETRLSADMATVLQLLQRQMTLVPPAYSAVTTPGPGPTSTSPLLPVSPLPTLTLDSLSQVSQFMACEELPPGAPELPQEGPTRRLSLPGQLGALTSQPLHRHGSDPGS
row,Structure (SMILES),"hERG current change (%, negative = inhibition) at 1uM"
1,CCNc1ccc(Br)cc(C(=O)/C=C/c2ccc3c(c2)OCO3)c1=O,-8.66%
2,O=C(NC(=S)Nc1cccc2c(O)cccc12)c1ccco1,-7.78%
3,O=C(NCC1CCCO1)c1c(O)c2c([nH]c1=O)CCCC2 (centres unmarked),11.7%
4,COC(=O)N1C(=O)[C@](CC(C)C)(c2ccccc2)N1C(=O)OC,15.8%
5,Cc1onc(-c2c(F)cccc2Cl)c1C(=O)NCc1ccc(S(N)(=O)=O)cc1,7.29%
6,Cc1ccc(NC(=O)N(Cc2ccco2)C(C)c2ccco2)cc1C (centres unmarked),2.29%
7,O=C(O)c1oc2ccccc2c1CN1CCN(c2ccccc2)CC1,4.59%
8,CC(NC(=O)c1ccc([N+](=O)[O-])o1)C12CC3CC(CC(C3)C1)C2 (centres unmarked),9.4%
9,CC(C)(C)CC(=O)NCCCCCCNC(=O)CC(C)(C)C,10.6%
10,COc1ccccc1N(C(=O)c1snc(C(N)=O)c1N)C(C(=O)NC1CCCCC1)c1cccc(OC)c1OC (centres unmarked),-0.583%
11,CC(C)(CN=C1NS(=O)(=O)c2ccccc21)CNC(=O)c1ccccc1,-0.214%
12,O=C(CSc1nnc(-c2ccccn2)o1)Nc1ccc(F)cc1,-6.07%
13,CC1CN(CCC(=O)Nc2ccc3c(c2)CCC3)CC(C)O1 (centres unmarked),16.2%
14,CCCCOc1ccc(N=Cc2cccs2)cc1,0.628%
15,O=C(CN1CCOCC1)Nc1nc2ccc(Cl)cc2s1,-0.395%
16,O=C(CC1C(=O)NCCN1Cc1ccccc1C(F)(F)F)NCCn1cccn1 (centres unmarked),4.71%
17,C/C(=N\NC(=O)CCCNc1cccc(C)c1)c1ccncc1,12.2%
18,O=S(=O)(NCCc1ccc(Cl)cc1)c1cccc2cccnc12,7.32%
19,Cc1ccccc1OCc1nc(C#N)c(N2CCCC2)o1,9.91%

row,Structure (SMILES),"hERG current change (%, negative = inhibition) at 1uM"
1,CC1CC(C)CN(c2oc(-c3ccccc3F)nc2C#N)C1 (centres unmarked),13%
2,O=C(CCNC(=O)c1ccc([N+](=O)[O-])cc1)NCCc1ccccc1,2.9%
3,NC(=O)N/N=C/c1sc(=O)n(-c2ccccc2)c1Cl,13.3%
4,O=C(Cc1cccs1)Nc1ccc(F)c(S(=O)(=O)N2CCOCC2)c1,-1.04%
5,Cc1cc2cc(C)c(NCCNC(=O)c3ccccc3)nc2cc1C,8.81%
6,CN1CCN(c2ccccc2NC(=O)Cc2ccc(Cl)cc2)CC1,-59.4%
7,CCCC1=C(C(=O)OCC)C2(C(=O)Nc3ccccc32)C(C#N)=C(N)O1 (centres unmarked),9.03%
8,CC(=O)c1ccc(Oc2ccc(C(=O)c3ccc(C)c(C)c3)cc2[N+](=O)[O-])cc1,5.4%
9,Cc1cc(F)ccc1NC(=O)C1CSC2(C)CCC(=O)N12 (centres unmarked),-0.718%
10,COc1n[nH]c(C(=O)Nc2cc(F)ccc2C)c1[N+](=O)[O-],16.2%
11,COC(=O)c1ccc(CSc2ccc3nnc(-c4cccc(F)c4)n3n2)o1,-8.49%
12,Cc1ccc(NCC(=O)N/N=C\C(Br)=C\c2ccccc2)cc1,0.112%
13,COc1ccccc1C(=O)Nc1nnc(-c2ccccc2)s1,17.2%
14,CCCC1C2CN(C(C)=O)CC=C2C(C#N)=C(N)C1(C#N)C#N (centres unmarked),-0.676%
15,COc1ccc(C2(c3ccc(OC)cc3)NC(=O)N(CC(=O)NC3(C#N)CCCCC3)C2=O)cc1,-1.53%
16,O=C(c1ccc(-n2cccc2)cc1)N1CCOCC1,7.49%
17,CCOc1ccc(CCNC(=O)CCNS(=O)(=O)c2ccc3c(c2)CCN3C(C)=O)cc1OCC,10%
18,Cc1c(CCC(=O)N2CCC[C@H]2C(=O)O)c(=O)oc2cc3oc4c(c3cc12)CCCC4,0.258%
19,CSc1ccccc1C(=O)N1CCC(CCC(=O)NC2CC2)CC1,16.1%

row,Structure (SMILES),"hERG current change (%, negative = inhibition) at 1uM"
1,Cc1ccc(S(=O)(=O)N(C)C)cc1NC(=O)COC(=O)c1ccc2c(c1)NC(=O)CS2,-25.7%
2,COc1ccc(C(C(=O)NCC2CCCO2)N(C(=O)CNC(=O)c2ccco2)c2cc(C)ccc2C)cc1OC (centres unmarked),9.34%
3,CSCCC(=O)N1CCC(n2nccc2NC(=O)CCc2ccccc2)CC1,5.02%
4,Cc1ccc(S(=O)(=O)NCc2ccccc2)cc1C(=O)N(C)Cc1ccccc1F,-8%
5,CC(C)(C)OC(=O)CNC(=O)c1nc[nH]c1C(=O)N1CCN(C(=O)OC(C)(C)C)CC1,7.46%
6,Cc1nc(C)c(-c2ccc(SCC(=O)Nc3ccc(C)c(Cl)c3)nn2)s1,18.6%
7,COc1ccc(S(=O)(=O)NCC(c2ccc3c(c2)OCO3)N2CCOCC2)cc1C (centres unmarked),0.279%
8,O=C(Cn1nnc2ccccc2c1=O)N1CCCc2ccccc21,2.01%
9,O=C(N=C1SC2CS(=O)(=O)CC2N1c1ccc(OC(F)(F)F)cc1)C1CC1 (centres unmarked),13.9%
10,CCc1cc2c(=O)n(C(C)C(=O)OC3CCCCC3)cnc2s1 (centres unmarked),4.66%
11,O=C(COC(=O)Cc1c(F)cccc1Cl)NC1CCS(=O)(=O)C1 (centres unmarked),14.9%
12,CC(/C=N/N1CCN(c2ccccc2)CC1)=C\c1ccccc1,1.55%
13,Cc1cccc(Nc2nc(N3CCN(C)CC3)nc(N)c2[N+](=O)[O-])c1,-18.3%
14,COc1ccccc1CCNS(=O)(=O)c1c(C)n(C)c(=O)n(C)c1=O,11.8%
15,COCCOC(=O)c1c(C)n(C)c2ccc(OC(=O)c3c(OC)cccc3OC)cc12,13.4%
16,COc1ccc(C(=O)NC2CC3CCCC(C2)N3Cc2ccccc2)cc1OC (centres unmarked),5.6%
17,O=C(Nc1cc(Cl)cc(Cl)c1)C(NCCCO)c1ccccc1 (centres unmarked),9.88%
18,CN(CC(=O)NCc1ccco1)S(=O)(=O)c1ccc(F)cc1,12.8%
